Source: patent US20070167608A1, “Sugar chain structure profiling techniques” (priority 2003, published 2007)

Test system: lectin-sugar chain interaction
Assay: Lectin array in the presence of competitively inhibiting sugar
Settings: Cy3-ASF probe, increasing lactose concentration

OC[C@H]1O[C@@H](O[C@H]2[C@H](O)[C@@H](O)C(O)O[C@@H]2CO)[C@H](O)[C@@H](O)[C@H]1O (stereo partly shown) [lactose]
Fluorescence intensity of the spots in the presence of lactose: decrease as the concentration of inhibiting sugar increased
